The list shows a part of the results. The data describe in vitro nicking of single-stranded DNA by Rep domains (3 µM enzyme, 1 h, 37 °C); shown is the middle of each 90-letter strand. Numbers give uncut DNA relative to the enzyme-free pool, as log2; the lower, the more was cut; hits are not called. Shares of all reads are compared; uncut strands gain when others are lost, and binding without cutting may add a little.
Assays:
Test in all cases: uncleaved DNA left, log2 of reads against the no-enzyme library (log2 ratio); higher = less cleavage (more negative = more Rep cleavage of the k-mer); sequences stand for … in CTCGTCCG…ACCGGAGA
[1] = tested on: T1, Rep nickase domain of Muscovy duck circovirus
T1 sequence (protein, residues 1-111, tag omitted): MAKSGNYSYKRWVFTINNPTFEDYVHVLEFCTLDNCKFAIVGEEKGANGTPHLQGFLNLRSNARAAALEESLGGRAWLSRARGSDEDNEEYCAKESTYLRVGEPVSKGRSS
Procedure: (§1)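 A pool of 90-nt single-stranded DNAs with seven random bases just before the constant AC of the nick site (name = the seven bases) was cut by 3 µM recombinant His6-SUMO-tagged Rep nickase domain (300 nM DNA, 50 mM HEPES pH 8.0, 50 mM NaCl, 1 mM MnCl2, 1 h, 37 °C, three replicates). Uncut DNA was amplified and sequenced.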

[2] = tested on: T2, Rep nickase domain of banana bunchy top virus
T2 sequence (protein, residues 1-94, tag omitted): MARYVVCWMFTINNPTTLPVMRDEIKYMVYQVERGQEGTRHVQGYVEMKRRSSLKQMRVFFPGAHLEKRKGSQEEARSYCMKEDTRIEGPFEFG
Procedure: as §1

[3] = tested on: T3, Rep nickase domain of cabbage leaf curl virus
T3 sequence (protein, residues 1-116, tag omitted): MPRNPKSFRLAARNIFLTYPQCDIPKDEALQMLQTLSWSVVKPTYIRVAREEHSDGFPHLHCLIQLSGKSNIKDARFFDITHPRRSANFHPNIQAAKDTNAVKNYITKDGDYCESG
Procedure: as §1

[4] = tested on: T4, Rep nickase domain of chickpea chlorotic dwarf virus
T4 sequence (protein, residues 1-124, tag omitted): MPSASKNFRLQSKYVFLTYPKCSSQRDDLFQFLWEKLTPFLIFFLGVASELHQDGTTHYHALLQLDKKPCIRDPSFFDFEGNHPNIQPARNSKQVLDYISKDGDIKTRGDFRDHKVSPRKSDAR
Procedure: as §1

[5] = tested on: T5, Rep nickase domain of faba bean necrotic yellows virus
T5 sequence (protein, residues 1-98, tag omitted): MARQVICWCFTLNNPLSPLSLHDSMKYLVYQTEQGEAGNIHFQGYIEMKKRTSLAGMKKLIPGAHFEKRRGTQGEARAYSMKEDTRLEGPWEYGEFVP
Procedure: as §1

[6] = tested on: T6, Rep nickase domain of maize striate mosaic virus
T6 sequence (protein, residues 1-117, tag omitted): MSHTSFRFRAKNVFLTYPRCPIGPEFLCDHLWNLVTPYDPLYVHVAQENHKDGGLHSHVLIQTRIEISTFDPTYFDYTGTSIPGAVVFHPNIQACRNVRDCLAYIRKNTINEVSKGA
Procedure: as §1

[7] = tested on: T7, Rep nickase domain of porcine circovirus 2
T7 sequence (protein, residues 2-116, tag omitted): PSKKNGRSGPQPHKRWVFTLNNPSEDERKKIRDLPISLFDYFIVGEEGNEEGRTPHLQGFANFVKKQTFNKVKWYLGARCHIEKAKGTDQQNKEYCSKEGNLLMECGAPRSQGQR
Procedure: as §1

[8] = tested on: T8, Rep nickase domain of tomato golden mosaic virus
T8 sequence (protein, residues 1-124, tag omitted): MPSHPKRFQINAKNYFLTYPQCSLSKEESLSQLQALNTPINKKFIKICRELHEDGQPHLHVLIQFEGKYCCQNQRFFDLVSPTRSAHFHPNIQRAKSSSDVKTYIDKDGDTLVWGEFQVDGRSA
Procedure: as §1

[9] = tested on: T9, Rep nickase domain of tomato yellow leaf curl virus
T9 sequence (protein, residues 1-136, tag omitted): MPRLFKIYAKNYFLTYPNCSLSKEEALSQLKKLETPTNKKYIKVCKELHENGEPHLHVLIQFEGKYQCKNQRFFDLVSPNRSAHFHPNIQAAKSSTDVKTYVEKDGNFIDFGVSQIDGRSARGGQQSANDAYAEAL
Procedure: as §1

[10] = tested on: T10, Rep nickase domain of wheat dwarf virus
T10 sequence (protein, residues 1-137, tag omitted): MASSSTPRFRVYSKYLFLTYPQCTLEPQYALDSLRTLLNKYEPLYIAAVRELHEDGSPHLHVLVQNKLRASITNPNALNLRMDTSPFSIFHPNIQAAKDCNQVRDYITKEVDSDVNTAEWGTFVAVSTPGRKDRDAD
Procedure: as §1

Sequence: GGCGACG
- uncleaved DNA left (log2) [1]: 0.0615
- uncleaved DNA left (log2) [2]: 0.108
- uncleaved DNA left (log2) [3]: 0.176
- uncleaved DNA left (log2) [4]: 0.682
- uncleaved DNA left (log2) [5]: 0.0562
- uncleaved DNA left (log2) [6]: 1.7
- uncleaved DNA left (log2) [7]: 0.152
- uncleaved DNA left (log2) [8]: 0.161
- uncleaved DNA left (log2) [9]: 0.0752
- uncleaved DNA left (log2) [10]: 0.0586

Sequence: GTATCAC
- uncleaved DNA left (log2) [1]: -0.0991
- uncleaved DNA left (log2) [2]: -0.0419
- uncleaved DNA left (log2) [3]: 0.249
- uncleaved DNA left (log2) [4]: 0.812
- uncleaved DNA left (log2) [5]: -0.113
- uncleaved DNA left (log2) [6]: 1.52
- uncleaved DNA left (log2) [7]: 0.00123
- uncleaved DNA left (log2) [8]: -0.053
- uncleaved DNA left (log2) [9]: 0.0074
- uncleaved DNA left (log2) [10]: 0.00629

Sequence: GCTTAAT
- uncleaved DNA left (log2) [1]: -0.804
- uncleaved DNA left (log2) [2]: 0.0124
- uncleaved DNA left (log2) [3]: 0.0943
- uncleaved DNA left (log2) [4]: 0.155
- uncleaved DNA left (log2) [5]: -0.0259
- uncleaved DNA left (log2) [6]: 0.496
- uncleaved DNA left (log2) [7]: -2.48
- uncleaved DNA left (log2) [8]: -0.00645
- uncleaved DNA left (log2) [9]: -0.0244
- uncleaved DNA left (log2) [10]: 0.0183

Sequence: AGTTATA
- uncleaved DNA left (log2) [1]: -0.0393
- uncleaved DNA left (log2) [2]: -0.0296
- uncleaved DNA left (log2) [3]: -0.0137
- uncleaved DNA left (log2) [4]: -0.867
- uncleaved DNA left (log2) [5]: -9.22e-05
- uncleaved DNA left (log2) [6]: 0.0806
- uncleaved DNA left (log2) [7]: -0.806
- uncleaved DNA left (log2) [8]: 0.0273
- uncleaved DNA left (log2) [9]: -0.0981
- uncleaved DNA left (log2) [10]: 0.0783

Sequence: GAATGCA
- uncleaved DNA left (log2) [1]: -0.179
- uncleaved DNA left (log2) [2]: -0.0157
- uncleaved DNA left (log2) [3]: -0.537
- uncleaved DNA left (log2) [4]: -0.95
- uncleaved DNA left (log2) [5]: 0.0317
- uncleaved DNA left (log2) [6]: -0.856
- uncleaved DNA left (log2) [7]: -0.717
- uncleaved DNA left (log2) [8]: -0.0285
- uncleaved DNA left (log2) [9]: 0.116
- uncleaved DNA left (log2) [10]: -0.0821

Sequence: TCGTGAA
- uncleaved DNA left (log2) [1]: 0.177
- uncleaved DNA left (log2) [2]: 0.0193
- uncleaved DNA left (log2) [3]: 0.152
- uncleaved DNA left (log2) [4]: 0.186
- uncleaved DNA left (log2) [5]: -0.0359
- uncleaved DNA left (log2) [6]: 0.282
- uncleaved DNA left (log2) [7]: -0.35
- uncleaved DNA left (log2) [8]: 0.195
- uncleaved DNA left (log2) [9]: 0.0569
- uncleaved DNA left (log2) [10]: 0.0818

Sequence: CAGAAGT
- uncleaved DNA left (log2) [1]: 0.192
- uncleaved DNA left (log2) [2]: 0.00629
- uncleaved DNA left (log2) [3]: 0.0465
- uncleaved DNA left (log2) [4]: -0.351
- uncleaved DNA left (log2) [5]: 0.0731
- uncleaved DNA left (log2) [6]: -0.754
- uncleaved DNA left (log2) [7]: -2.9
- uncleaved DNA left (log2) [8]: 0.206
- uncleaved DNA left (log2) [9]: 0.193
- uncleaved DNA left (log2) [10]: 0.146

Sequence: GGCGCAA
- uncleaved DNA left (log2) [1]: -0.0302
- uncleaved DNA left (log2) [2]: 0.14
- uncleaved DNA left (log2) [3]: 0.483
- uncleaved DNA left (log2) [4]: 1.54
- uncleaved DNA left (log2) [5]: -0.0646
- uncleaved DNA left (log2) [6]: 1.73
- uncleaved DNA left (log2) [7]: 0.15
- uncleaved DNA left (log2) [8]: 0.0678
- uncleaved DNA left (log2) [9]: -0.0267
- uncleaved DNA left (log2) [10]: 0.145

Sequence: CGGGTCG
- uncleaved DNA left (log2) [1]: 0.107
- uncleaved DNA left (log2) [2]: 0.0615
- uncleaved DNA left (log2) [3]: -0.359
- uncleaved DNA left (log2) [4]: 0.185
- uncleaved DNA left (log2) [5]: 0.114
- uncleaved DNA left (log2) [6]: -0.451
- uncleaved DNA left (log2) [7]: 0.248
- uncleaved DNA left (log2) [8]: 0.0476
- uncleaved DNA left (log2) [9]: 0.0431
- uncleaved DNA left (log2) [10]: -0.0482

Sequence: GGGCATG
- uncleaved DNA left (log2) [1]: 0.0486
- uncleaved DNA left (log2) [2]: 0.175
- uncleaved DNA left (log2) [3]: 0.905
- uncleaved DNA left (log2) [4]: 1.95
- uncleaved DNA left (log2) [5]: 0.199
- uncleaved DNA left (log2) [6]: 2.23
- uncleaved DNA left (log2) [7]: 0.214
- uncleaved DNA left (log2) [8]: 0.0937
- uncleaved DNA left (log2) [9]: -0.0928
- uncleaved DNA left (log2) [10]: 0.156

Sequence: TAGGGCA
- uncleaved DNA left (log2) [1]: 0.0408
- uncleaved DNA left (log2) [2]: 0.0987
- uncleaved DNA left (log2) [3]: 0.548
- uncleaved DNA left (log2) [4]: 0.825
- uncleaved DNA left (log2) [5]: 0.114
- uncleaved DNA left (log2) [6]: 1.17
- uncleaved DNA left (log2) [7]: 0.0879
- uncleaved DNA left (log2) [8]: 0.104
- uncleaved DNA left (log2) [9]: 0.038
- uncleaved DNA left (log2) [10]: 0.0731

Sequence: ATGTGCG
- uncleaved DNA left (log2) [1]: -0.000438
- uncleaved DNA left (log2) [2]: -0.0615
- uncleaved DNA left (log2) [3]: 0.0804
- uncleaved DNA left (log2) [4]: 1.25
- uncleaved DNA left (log2) [5]: 0.0142
- uncleaved DNA left (log2) [6]: 1.24
- uncleaved DNA left (log2) [7]: 0.103
- uncleaved DNA left (log2) [8]: 0.000251
- uncleaved DNA left (log2) [9]: -0.117
- uncleaved DNA left (log2) [10]: -0.0261

Sequence: CATCACA
- uncleaved DNA left (log2) [1]: 0.0527
- uncleaved DNA left (log2) [2]: 0.0832
- uncleaved DNA left (log2) [3]: -0.219
- uncleaved DNA left (log2) [4]: -2.36
- uncleaved DNA left (log2) [5]: -0.00782
- uncleaved DNA left (log2) [6]: -0.675
- uncleaved DNA left (log2) [7]: -0.0221
- uncleaved DNA left (log2) [8]: -0.0408
- uncleaved DNA left (log2) [9]: 0.0148
- uncleaved DNA left (log2) [10]: -0.0324

Sequence: TGGATCG
- uncleaved DNA left (log2) [1]: 0.203
- uncleaved DNA left (log2) [2]: -0.0142
- uncleaved DNA left (log2) [3]: -0.531
- uncleaved DNA left (log2) [4]: -0.175
- uncleaved DNA left (log2) [5]: -0.0608
- uncleaved DNA left (log2) [6]: -0.915
- uncleaved DNA left (log2) [7]: 0.216
- uncleaved DNA left (log2) [8]: 0.0251
- uncleaved DNA left (log2) [9]: 0.0717
- uncleaved DNA left (log2) [10]: 0.0221

Sequence: TATGCTA
- uncleaved DNA left (log2) [1]: -0.0521
- uncleaved DNA left (log2) [2]: 0.0469
- uncleaved DNA left (log2) [3]: -0.134
- uncleaved DNA left (log2) [4]: -1.77
- uncleaved DNA left (log2) [5]: 0.0073
- uncleaved DNA left (log2) [6]: -0.964
- uncleaved DNA left (log2) [7]: -0.0785
- uncleaved DNA left (log2) [8]: 0.0324
- uncleaved DNA left (log2) [9]: 0.0731
- uncleaved DNA left (log2) [10]: 0.0418
